Results as given in publication PMC4336329 (PLoS ONE, 2015).
About 2,200 (0.71%) of roughly 310,000 compounds showed an effect of 50% or more. Effects have a minus sign here. Some of the results follow.

target: human ether-à-go-go-related gene (hERG) potassium channel (human, UniProt Q12809); test: primary screen, population patch clamp on CHO cells stably expressing hERG
Sequence (Q12809 whole entry, looked up): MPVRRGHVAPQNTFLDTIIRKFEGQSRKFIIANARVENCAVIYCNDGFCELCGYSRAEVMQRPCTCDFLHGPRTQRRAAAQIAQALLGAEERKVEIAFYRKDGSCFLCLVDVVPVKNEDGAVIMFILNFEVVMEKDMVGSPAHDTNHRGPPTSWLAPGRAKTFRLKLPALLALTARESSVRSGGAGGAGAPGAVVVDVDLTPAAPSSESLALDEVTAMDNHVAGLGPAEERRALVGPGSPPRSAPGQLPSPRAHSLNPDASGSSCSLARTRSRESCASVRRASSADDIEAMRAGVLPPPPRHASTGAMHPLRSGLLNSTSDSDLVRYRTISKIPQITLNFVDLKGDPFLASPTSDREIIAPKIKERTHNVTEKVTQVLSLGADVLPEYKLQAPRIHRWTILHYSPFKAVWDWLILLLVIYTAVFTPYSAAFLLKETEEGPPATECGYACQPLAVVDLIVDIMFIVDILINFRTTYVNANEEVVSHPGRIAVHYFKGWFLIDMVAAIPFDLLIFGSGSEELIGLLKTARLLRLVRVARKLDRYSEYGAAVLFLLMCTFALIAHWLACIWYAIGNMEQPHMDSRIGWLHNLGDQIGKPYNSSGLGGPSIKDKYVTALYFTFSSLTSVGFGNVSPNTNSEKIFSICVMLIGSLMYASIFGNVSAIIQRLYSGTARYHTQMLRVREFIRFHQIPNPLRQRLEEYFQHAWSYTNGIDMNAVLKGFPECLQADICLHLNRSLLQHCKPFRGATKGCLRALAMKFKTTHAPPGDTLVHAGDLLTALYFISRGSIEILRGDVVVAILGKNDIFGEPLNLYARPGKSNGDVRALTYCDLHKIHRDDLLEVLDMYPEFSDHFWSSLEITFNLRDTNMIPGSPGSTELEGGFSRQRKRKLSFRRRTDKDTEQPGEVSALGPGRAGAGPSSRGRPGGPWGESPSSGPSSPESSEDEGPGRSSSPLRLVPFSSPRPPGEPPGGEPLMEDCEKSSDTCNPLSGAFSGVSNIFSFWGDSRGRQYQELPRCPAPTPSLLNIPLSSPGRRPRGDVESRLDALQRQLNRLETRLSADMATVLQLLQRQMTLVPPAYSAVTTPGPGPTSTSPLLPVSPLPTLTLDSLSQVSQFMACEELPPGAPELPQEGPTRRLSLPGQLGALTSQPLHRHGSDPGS

Structure (SMILES) | hERG current change (%, negative = inhibition) at 1uM
CC(C)C(C)NC(=O)CSc1ccc(S(=O)(=O)N2CCOCC2)cn1 (stereo not drawn) | 3.48%
Cc1ccc(C)c2c1cc(C)c1nnc(SCC(=O)Nc3nc4c(s3)CCCC4)n12 | -0.557%
O=[N+]([O-])c1cc(F)c(N2CCCCC2)cc1Br | 7.51%
Cc1cccc(NC(=O)CSc2nnc(CNC(=O)c3ccc(S(=O)(=O)N(C)C)cc3)n2-c2cccc(C)c2)c1 | 11.1%
Cn1cnc(S(=O)(=O)Nc2cc(-c3ccc(Cl)cc3)nn2C)c1 | 8.73%
N#Cc1ccc(Oc2ccc(S(=O)(=O)N3CCCCC3)cn2)cc1 | 4.97%
CCOC(=O)c1sc(NC(=O)C(C)C)c(C#N)c1C | 16%
COCc1ccc(CN2CCCC(CO)(Cc3cccc(Cl)c3)C2)o1 (stereo not drawn) | -11.3%
CCCCOC(=O)Nc1nc2ccc([N+](=O)[O-])cc2s1 | 18.8%
O=C(Nc1ccccc1)/C(=C/c1cccc(Br)c1)NC(=O)c1ccco1 | 9.68%
CCN(CC)CCCNC(=O)Cn1ncc2c(=O)oc3ccc(C)cc3c21 | 0.584%
O=C(O)CCc1ccc(-c2cccs2)n1NC(=O)c1ccc(Cl)cc1 | 16.3%
Cc1ccccc1NC(=O)c1ccc(NS(=O)(=O)c2cc(C(C)(C)C)cc(C)c2C)cc1 | 4.57%
CCCn1c(SCC(=O)OCc2ccccc2)nc2c1c(=O)n(C)c(=O)n2C | 3.95%
Cc1cnn(CCC(=O)NNC(=S)Nc2ccccc2)c1 | -2.49%
Cl.NC[C@@H]1O[C@H](C23CC4CC(CC(C4)C2)C3)Cc2c1ccc(O)c2O | 15%
CC(C)(C)C(=O)Nc1cccc(-c2ncon2)c1 | 10.8%
N/C(=N\OC(=O)c1ccc(Cl)c(Cl)c1)c1cccnc1 | 7.02%
NC(=O)N(CCC(=O)O)c1ccccc1 | 3.33%

Structure (SMILES) | hERG current change (%, negative = inhibition) at 1uM
Cc1cc(Cl)c(OCCOCCN2CCCC(C)C2)c(Br)c1.O=C(O)C(=O)O (stereo not drawn) | -5.23%
CCOC(=O)c1cccc(N2C(=O)C3C(C(=O)NC4CC4)C4(C)C=CC3(O4)C2C(=O)NC(C)(C)C)c1 (stereo not drawn) | 12.9%
O=C(NCCN1CCN(C(=O)c2ccc(F)cc2)CC1)c1ccc(F)cc1 | -32%
Cc1cccc(NC(=O)c2sc3nc(N4CCOCC4)c4c(c3c2N)CCCC4)c1 | 14.1%
CCOC(=O)CSc1nc2ccccc2c(=O)n1CC1COc2ccccc2O1 (stereo not drawn) | 6.59%
CCOC(=O)CNC(=O)CCc1nnc2ccc(N3CCC(C)CC3)nn12 | 7.35%
Cc1cc(C)c(NS(=O)(=O)c2c(C(=O)N3CCOCC3)c(C)n(C)c2C)c(C)c1 | 4.5%
COCCN(Cc1cc2cc(C)cc(C)c2nc1Cl)C(=O)Nc1ccccc1 | -0.791%
COc1ccc(Cl)cc1C(=O)CSc1nnnn1C1CCCCC1 | 10.1%
CC(C)c1ccc(NC(=O)c2ccc3c(c2)CCN3S(C)(=O)=O)cc1 | 2.05%
Cc1ccc(S(=O)(=O)N2CCCC2C(=O)Nn2cnnc2)cc1 (stereo not drawn) | 11.7%
O=C(NC1CCCCCCC1)c1ccc(Br)cc1 | 10.2%
Cc1[nH]n(-c2ccccc2)c(=O)c1C(=O)Nc1ccccc1 | 2.94%
Cc1ccc(CCN2CC(C(=O)NCc3ccc4c(c3)OCO4)CC2=O)cc1 (stereo not drawn) | -7.27%
CC(=O)c1cccc(CN2CCN(CC(C)C)C(CCO)C2)c1 (stereo not drawn) | 9.75%
CC(C)N=C(Nc1ccccc1)c1cccnc1 | -1.56%
Cc1ccc(C23CC4CC(CC(CC(=O)N5CCOCC5)(C4)C2)C3)cc1 | -4.13%
CC(=O)c1cccc(NC(=O)C=C(C)C)c1 | 9.11%
NC(=O)C(c1ccccn1)c1ncc(C(F)(F)F)cc1Cl (stereo not drawn) | 10.9%

Structure (SMILES) | hERG current change (%, negative = inhibition) at 1uM
O=CC(Cl)P(=O)(N1CCCCC1)N1CCCCC1 (stereo not drawn) | 13.6%
COc1ccc(N/N=C(/C(N)=O)C2=NC(C)(C)Cc3ccccc32)cc1 | 1.37%
Cc1cc(C(=O)N(C2CCCCC2)C2CCCCC2)no1 | -3.84%
[O-][n+]1c2c(nn1-c1ccc(Cl)c(Cl)c1)-c1nonc1CC2 | 11.3%
C=CCN1C(=O)/C(=C\C=C2\N(C)c3ccccc3C2(C)C)SC1=S | -3.41%
O=C(Nc1ncnc2c1CCC2)C12CC3CC(CC(C3)C1)C2 | 3.21%
O=C1NC(=S)N/C1=C/c1ccc(Oc2ccc(C(F)(F)F)cc2[N+](=O)[O-])c(Cl)c1 | -0.0309%
O=C(Nc1cccnc1)c1ccc(-c2ccc(Cl)cc2)o1 | 9.68%
COCCCNC(=O)c1ccc(CS(=O)(=O)c2cccc(C(F)(F)F)c2)o1 | 12.3%
O=C(NCCCN1CCCC1)c1ccc2c(c1)N(Cc1ccccc1)CCS2 | -41.7%
Cc1cc2ccccn2c1C(=O)c1cccc([N+](=O)[O-])c1 | 3.87%
CC(=O)N1CCOCCOCCOCC1 | 10.2%
CCOC(=O)C(CC)n1cnc2c(nnn2-c2ccc(OC)cc2)c1=O (stereo not drawn) | -8.12%
CCOc1cc(C(=O)OC(C)C(=O)Nc2ccc(NC(C)=O)cc2)ccc1OCC(=O)N1CCCCC1 (stereo not drawn) | 8.49%
Cn1c(CNC2CCCCC2)nc2ccccc21 | -2.81%
Cc1ccc(N2C(=O)CC(N3CCc4ccccc43)C2=O)cc1Cl (stereo not drawn) | 2.11%
Cc1ccccc1C1N(c2nccs2)C(=O)C2CCCN21 (stereo not drawn) | -6.37%
COc1cc(/C=C2\CCc3c2nc2ccccc2c3C(=O)O)cc(OC)c1OC | 5.25%
O=C(Cc1ccccc1)Nc1ccc2oc(-c3cccnc3)nc2c1 | 9.01%
